Data: paper PMC4336329 (PLoS ONE, 2015)
Among all 310,000 compounds or so, about 2,200 (0.71%) showed an effect of 50% or more. Effects have a minus sign here. The list shows a part of the results.

Biological target: human ether-à-go-go-related gene (hERG) potassium channel (human, UniProt Q12809)
Assay: primary screen, population patch clamp on CHO cells stably expressing hERG

Sequence of human ether-à-go-go-related gene (hERG) potassium channel (Q12809 whole entry, looked up): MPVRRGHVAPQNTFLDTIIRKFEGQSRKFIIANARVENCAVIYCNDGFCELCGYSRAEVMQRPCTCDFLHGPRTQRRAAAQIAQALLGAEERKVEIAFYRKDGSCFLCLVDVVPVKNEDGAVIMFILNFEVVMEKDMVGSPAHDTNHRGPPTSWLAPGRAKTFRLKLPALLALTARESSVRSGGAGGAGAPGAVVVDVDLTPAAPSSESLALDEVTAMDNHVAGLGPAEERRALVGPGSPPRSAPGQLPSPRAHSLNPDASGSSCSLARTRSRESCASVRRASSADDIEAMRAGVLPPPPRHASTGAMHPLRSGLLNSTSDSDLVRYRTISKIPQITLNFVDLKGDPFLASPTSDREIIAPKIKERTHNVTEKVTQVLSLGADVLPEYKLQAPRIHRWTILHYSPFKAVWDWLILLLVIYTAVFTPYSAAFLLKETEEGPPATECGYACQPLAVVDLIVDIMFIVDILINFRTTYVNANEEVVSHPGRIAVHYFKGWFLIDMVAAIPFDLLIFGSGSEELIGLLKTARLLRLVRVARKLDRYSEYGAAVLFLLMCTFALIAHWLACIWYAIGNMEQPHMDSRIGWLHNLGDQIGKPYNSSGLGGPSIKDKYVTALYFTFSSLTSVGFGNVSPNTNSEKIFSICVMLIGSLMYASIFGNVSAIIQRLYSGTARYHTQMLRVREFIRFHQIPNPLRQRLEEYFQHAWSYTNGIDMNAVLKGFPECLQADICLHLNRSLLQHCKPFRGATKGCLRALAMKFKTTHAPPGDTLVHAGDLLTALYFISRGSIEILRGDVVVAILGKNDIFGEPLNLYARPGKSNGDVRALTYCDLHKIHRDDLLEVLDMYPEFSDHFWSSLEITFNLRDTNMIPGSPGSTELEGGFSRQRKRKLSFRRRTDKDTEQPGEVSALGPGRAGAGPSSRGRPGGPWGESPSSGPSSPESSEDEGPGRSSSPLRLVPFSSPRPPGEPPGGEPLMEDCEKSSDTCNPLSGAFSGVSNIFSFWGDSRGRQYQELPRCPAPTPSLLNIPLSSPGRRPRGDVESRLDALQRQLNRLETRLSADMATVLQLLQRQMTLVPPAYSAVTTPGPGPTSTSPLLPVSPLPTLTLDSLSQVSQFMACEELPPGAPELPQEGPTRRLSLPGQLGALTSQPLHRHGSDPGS

In order of falling “hERG current change (%, negative = inhibition) at 1uM” value:
1. CCN(CC)CCCNC(=O)Cn1nc([N+](=O)[O-])c(Cl)c1C  25.6%
2. COc1cccc2c1OCC(C(=O)O)C2 (stereo not shown)  22.3%
3. Cc1ccc(C(=O)CCNc2cccc(Br)c2)o1  21.6%
4. Cc1ccc(S(=O)(=O)c2c(C)nn(-c3ccccc3)c2OC(=O)c2ccc(Br)o2)cc1  19.2%
5. CCC(=O)N/N=C(\C)CC(=O)Nc1ccc2c(c1)OCCO2  18.7%
6. COc1ccc(NC(=O)c2cc(=O)[nH]c3ccccc23)cc1  17.1%
7. COCCn1c(SCC(=O)Nc2cccnc2Cl)nc2ccccc2c1=O  16.9%
8. O=C(Nc1ccccc1Cl)c1ccccc1S(=O)(=O)c1ccccc1[N+](=O)[O-]  16.8%
9. CCOc1ccc(Cl)cc1CNc1nnnn1CC  16.7%
10. CC(Sc1ccccn1)C(=O)Nc1ccc(S(N)(=O)=O)cc1 (stereo not shown)  16.2%
11. O=C(Cc1ccccc1)N/N=C/c1cc(Br)cs1  15.1%
12. Cc1nc(-c2ccccc2)cc(=O)[nH]1  14.8%
13. O=[N+]([O-])c1cccc(-c2nnnn2-c2cccc(F)c2)c1  14.7%
14. O=C(NCCN1CCOCC1)c1ccc2c(c1)N(Cc1ccccc1)C(=O)c1ccccc1S2  14.6%
15. CN(C)S(=O)(=O)c1ccc(NC(=S)NC(=O)c2ccc(Br)o2)cc1  14.2%
16. CCOC(=O)c1c(-c2cccc(N)c2)cn2ccccc12  14%
17. O=C1Nc2ccc(Cl)cc2C12OCCCO2  13.9%
18. CCCn1c(NCc2ccc3c(c2)OCO3)nc2ccccc21  13.9%
19. CC1(C)Nc2ccccc2C(=O)N1c1ccc(Br)cc1  13%
20. CCOc1cccc(CN2CCC(Oc3ccc(C(=O)NCc4ccccn4)cc3)CC2)c1  11.8%
21. CC(CCc1ccccc1)NC(=O)COC(=O)c1cccs1 (stereo not shown)  11.7%
22. CC(=O)c1ccc(Nc2nc(-c3cccnc3)cs2)cc1  11.4%
23. COCCCN1CC(=O)N2C(c3cccc(C)c3)c3[nH]c4ccccc4c3C[C@H]2C1=O (stereo partly shown)  11.4%
24. Cc1ccc(Sc2ncccc2C(=O)O)c(C)c1  11.2%
25. Cc1cccc(NC(=O)CN2C(=O)S/C(=C\c3ccc(-c4cccc(C(=O)O)c4C)o3)C2=O)c1  11.2%
26. Cc1ccc(C(C(=O)NCC2CCCO2)N(C(=O)c2snc(C(N)=O)c2N)c2ccccc2)o1 (stereo not shown)  11%
27. CN(C)CC(C)(C)CNCc1cc(=O)oc2ccc3ccccc3c12  10.1%
28. O=S(=O)(c1ccc(Cl)cc1)c1nc(-c2ccco2)oc1N1CCCCC1  9.92%
29. NS(=O)(=O)c1ccc(CCNc2ncnc3sccc23)cc1  9.58%
30. Cc1ccc(-c2nc(Nc3cccc(C)c3)sc2CC(=O)O)cc1  9.35%
31. CCOC(=O)C1(C)/C(=N/Nc2ccc(S(N)(=O)=O)cc2)C(=O)C(=O)N1c1ccccc1 (stereo not shown)  9.34%
32. c1ccc2c(NC3=NCCS3)cccc2c1  8.46%
33. CCOC(=O)c1cccc(C(=O)OCC)n1  8.42%
34. O=C(NCCN1CCCC1)C1(S(=O)(=O)c2ccc(Cl)cc2)CC1  6.96%
35. CC1CCN(C(=O)c2ccc(NS(=O)(=O)c3ccccc3)cc2)CC1  6.83%
36. O=C1CCC(C(=O)Nc2ccc(OC(F)F)cc2)N1 (stereo not shown)  5.68%
37. COc1cccc(OCCN2CCN(c3ncnc4c3cnn4-c3ccccc3)CC2)c1  5.37%
38. CN(C1CCCCC1)S(=O)(=O)c1ccc(NC(=O)C2CCCCC2)cc1  3.04%
39. COc1ccc(CNc2nc(S(=O)(=O)c3ccccc3)c(Cl)s2)cc1OC  2.1%
40. Cc1cccc(-c2noc(CCc3ccccc3)n2)c1  2.05%
41. CCOc1ccc(NC(=O)c2nnn(CC(=O)Nc3ccccc3OCC)c2N)cc1  1.93%
42. CCOC(=O)Nc1ccc(S(=O)(=O)Nc2cc(C)nc(C)n2)cc1  1.71%
43. COc1ccc(NC(=O)c2cccnc2N2CCCCC2)cc1  -0.349%
44. CC(C)=NNc1nc(-c2ccc([N+](=O)[O-])cc2)cs1  -0.704%
45. O=C1NCC(=O)N2CCC[C@@H]12  -2.55%
46. CCOc1ccc(N(CC(=O)N2CCCC2)S(=O)(=O)c2ccc(F)cc2)cc1  -3.22%
47. Cc1cc(NC(=O)c2ccccc2)no1  -3.51%
48. CCc1cccc(NC(=O)CCCn2nc(C)c3c(C)n(-c4ccccc4)nc3c2=O)c1  -4.25%
49. CCCNCc1cc(OC)c(OCC(=O)NCCc2ccccc2)cc1Br  -4.82%
50. CC12CN3CC(C)(CN(C1)C3c1c[nH]c3ccccc13)C2=O (stereo not shown)  -5.41%
51. COC(=O)c1cc(NC(=O)CN(c2cccc(OC)c2)S(=O)(=O)c2ccccc2)ccc1Cl  -6.44%
52. Cc1cc(=O)oc(C)c1C(=O)NCCCN1CCN(c2ccccc2F)CC1  -7.44%
53. CCCCOC(=O)/C=C/c1c(C)[nH]c(=O)[nH]c1=O  -7.74%
54. Cc1nc(COc2ccc(C(=O)NCc3ccccc3CN3CCCCC3)cc2)cs1  -10.6%
55. O=C(c1ccco1)N1CCN(C(=O)c2ccc(-c3ccccc3Cl)o2)CC1  -13.8%
56. Cc1c(NP(=O)(c2ccc(Br)cc2)c2ccc(Br)cc2)c(=O)n(-c2ccccc2)n1C  -14.6%
57. COc1ccc(OC)c(NC(=O)Cn2c(-c3ccc(Cl)cc3)noc2=O)c1  -16.4%
58. COc1ccc(-c2coc3c(CN4CCCCC4)c(O)c(CN4CCCCC4)c(O)c3c2=O)cc1  -88%
